# The supplement of paper PMC8728848
# The list shows a part of the results.
# B1: PX9937B-bvu-524-33-524 (Bacteroides vulgatus) (protein)
# chain: GTAYWKNPDQFTAFNTGLHALLREKSYNFFLLGEPRADIYGDNPIGGEASQGMERLPFNTINKENVGISNYGDMYKIINQINQMIAKTTETTILTEATQNYYLGEAYGMRAYLYFHLLRSWGDVVLYLDYTEGQNLDLSNITKGVSPATEVMEQIKKDIQASENAFGSDYSFKLGRHFWSAAATQMLKGEAYLWSGRQMNGGNSDYTIAKNAFENVKKADVGLVTSSFKDIFSFENKKNKEMIFTIHNGKDEYEMWGGYYRMRLIPAQDKMVKIYCDENGNSFVGTPDAQLNGLTQLQVRREFYFKGFRNNDTRWTTSLKAVYKKDAQGVVSYFGPITYKFQGTMLEGGSTRSFLDDFPIYRYADCLLQLAMAKVLLGEDPTEEINAVRERAYGSKYFNEHKAEIAYPNDNDPEFYTDNKWMKPDNAGALEAILKERLREFMFEGKRWYDIRLLGWDYVHQYSSAEQSRLLWPIDAGTLTNNSALKQTPGYE
# Assays:
# Assay in all cases: glycan array binding signal (z-score within array); higher = stronger binding
# Conditions in all cases: glycan notation: IUPAC condensed, linker removed
# Fuc(a1-2)Gal = target: Fuc(a1-2)Gal
# How it was run: (§1)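 Columns mapping to the same glycan were averaged after glycan names were converted to IUPAC-condensed notation. The data come from 3228 arrays in the Consortium for Functional Glycomics database, limited to those with an available protein sequence. Binding is reported as a within-array Z-score averaged across arrays of one protein sequence and across linkers.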
# Fuc(a1-2)Gal(b1-3)GalNAc = target: Fuc(a1-2)Gal(b1-3)GalNAc
# How it was run: as §1
# [1] = target: Fuc(a1-2)Gal(b1-3)GalNAc(a1-3)[Fuc(a1-2)]Gal(b1-4)Glc
# How it was run: as §1
# [2] = target: Fuc(a1-2)Gal(b1-3)GalNAc(a1-3)[Fuc(a1-2)]Gal(b1-4)GlcNAc
# How it was run: as §1
# [3] = target: Fuc(a1-2)Gal(b1-3)GalNAc(b1-3)Gal
# How it was run: as §1
# [4] = target: Fuc(a1-2)Gal(b1-3)GalNAc(b1-3)Gal(a1-4)Gal(b1-4)Glc
# How it was run: as §1
# [5] = target: Fuc(a1-2)Gal(b1-3)GalNAc(b1-4)[Neu5Ac(a2-3)]Gal(b1-4)Glc
# How it was run: as §1
# Fuc(a1-2)Gal(b1-3)GlcNAc = target: Fuc(a1-2)Gal(b1-3)GlcNAc
# How it was run: as §1
# [6] = target: Fuc(a1-2)Gal(b1-3)GlcNAc(b1-2)Man(a1-3)[Fuc(a1-2)Gal(b1-3)GlcNAc(b1-2)Man(a1-6)]Man(b1-4)GlcNAc(b1-4)GlcNAc
# How it was run: as §1
# [7] = target: Fuc(a1-2)Gal(b1-3)GlcNAc(b1-2)Man(a1-3)[Fuc(a1-2)Gal(b1-3)GlcNAc(b1-2)Man(a1-6)]Man(b1-4)GlcNAc(b1-4)[Fuc(a1-6)]GlcNAc
# How it was run: as §1
# [8] = target: Fuc(a1-2)Gal(b1-3)GlcNAc(b1-3)Gal(b1-4)Glc
# How it was run: as §1
# [9] = target: Fuc(a1-2)Gal(b1-3)GlcNAc(b1-3)GalNAc
# How it was run: as §1
# [10] = target: Fuc(a1-2)Gal(b1-3)GlcNAc(b1-3)[Fuc(a1-2)Gal(b1-3)GlcNAc(b1-6)]GalNAc
# How it was run: as §1
# [11] = target: Fuc(a1-2)Gal(b1-3)GlcNAc(b1-3)[Gal(b1-4)GlcNAc(b1-6)]Gal(b1-4)Glc
# How it was run: as §1
# [12] = target: Fuc(a1-2)Gal(b1-3)GlcNAc(b1-3)[Neu5Ac(a2-6)Gal(b1-4)GlcNAc(b1-6)]Gal(b1-4)Glc
# How it was run: as §1
# [13] = target: Fuc(a1-2)Gal(b1-3)GlcNAc6S
# How it was run: as §1
# [14] = target: Fuc(a1-2)Gal(b1-3)[Fuc(a1-4)]GlcNAc
# How it was run: as §1
# [15] = target: Fuc(a1-2)Gal(b1-3)[Fuc(a1-4)]GlcNAc(b1-2)Man(a1-3)[Fuc(a1-2)Gal(b1-3)[Fuc(a1-4)]GlcNAc(b1-2)Man(a1-3)]Man(b1-4)GlcNAc(b1-4)GlcNAc
# How it was run: as §1
# [16] = target: Fuc(a1-2)Gal(b1-3)[Fuc(a1-4)]GlcNAc(b1-2)Man(a1-3)[Fuc(a1-2)Gal(b1-3)[Fuc(a1-4)]GlcNAc(b1-2)Man(a1-6)]Man(b1-4)GlcNAc(b1-4)[Fuc(a1-6)]GlcNAc(b1-4)[Fuc(a1-6)]GlcNAc
# How it was run: as §1
# [17] = target: Fuc(a1-2)Gal(b1-3)[Fuc(a1-4)]GlcNAc(b1-3)[Fuc(a1-3)[Gal(b1-4)]GlcNAc(b1-6)]Gal(b1-4)Glc
# How it was run: as §1
# [18] = target: Fuc(a1-2)Gal(b1-3)[Fuc(a1-4)]GlcNAc(b1-3)[Gal(b1-4)GlcNAc(b1-6)]Gal(b1-4)Glc
# How it was run: as §1
# Fuc(a1-2)Gal(b1-4)Glc = target: Fuc(a1-2)Gal(b1-4)Glc
# How it was run: as §1
# Fuc(a1-2)Gal(b1-4)Glc6S = target: Fuc(a1-2)Gal(b1-4)Glc6S
# How it was run: as §1
# Fuc(a1-2)Gal(b1-4)GlcNAc = target: Fuc(a1-2)Gal(b1-4)GlcNAc
# How it was run: as §1
# [19] = target: Fuc(a1-2)Gal(b1-4)GlcNAc(b1-2)Man
# How it was run: as §1
# [20] = target: Fuc(a1-2)Gal(b1-4)GlcNAc(b1-2)Man(a1-3)[Fuc(a1-2)Gal(b1-4)GlcNAc(b1-2)Man(a1-6)]Man(b1-4)GlcNAc(b1-4)GlcNAc
# How it was run: as §1
# [21] = target: Fuc(a1-2)Gal(b1-4)GlcNAc(b1-2)Man(a1-3)[Fuc(a1-2)Gal(b1-4)GlcNAc(b1-2)Man(a1-6)]Man(b1-4)GlcNAc(b1-4)[Fuc(a1-6)]GlcNAc
# How it was run: as §1
# [22] = target: Fuc(a1-2)Gal(b1-4)GlcNAc(b1-2)[Fuc(a1-2)Gal(b1-4)GlcNAc(b1-4)]Man(a1-3)[Fuc(a1-2)Gal(b1-4)GlcNAc(b1-2)Man(a1-6)]Man(b1-4)GlcNAc(b1-4)GlcNAc
# How it was run: as §1
# [23] = target: Fuc(a1-2)Gal(b1-4)GlcNAc(b1-3)Gal(b1-4)GlcNAc
# How it was run: as §1
# [24] = target: Fuc(a1-2)Gal(b1-4)GlcNAc(b1-3)Gal(b1-4)GlcNAc(b1-2)Man(a1-3)[Fuc(a1-2)Gal(b1-4)GlcNAc(b1-3)Gal(b1-4)GlcNAc(b1-2)Man(a1-6)]Man(b1-4)GlcNAc(b1-4)GlcNAc
# How it was run: as §1
binder,measurement,setting,value
B1,glycan array binding signal (z-score),Fuc(a1-2)Gal,-0.384
same,glycan array binding signal (z-score),Fuc(a1-2)Gal(b1-3)GalNAc,-0.293
same,glycan array binding signal (z-score),[1],-0.317
same,glycan array binding signal (z-score),[2],-0.51
same,glycan array binding signal (z-score),[3],-0.112
same,glycan array binding signal (z-score),[4],-0.213
same,glycan array binding signal (z-score),[5],-0.433
same,glycan array binding signal (z-score),Fuc(a1-2)Gal(b1-3)GlcNAc,-0.131
same,glycan array binding signal (z-score),[6],0.758
same,glycan array binding signal (z-score),[7],-0.232
same,glycan array binding signal (z-score),[8],-0.346
same,glycan array binding signal (z-score),[9],-0.512
same,glycan array binding signal (z-score),[10],-0.016
same,glycan array binding signal (z-score),[11],-0.284
same,glycan array binding signal (z-score),[12],-0.297
same,glycan array binding signal (z-score),[13],-0.073
same,glycan array binding signal (z-score),[14],-0.457
same,glycan array binding signal (z-score),[15],-0.154
same,glycan array binding signal (z-score),[16],0.745
same,glycan array binding signal (z-score),[17],-0.297
same,glycan array binding signal (z-score),[18],-0.48
same,glycan array binding signal (z-score),Fuc(a1-2)Gal(b1-4)Glc,-0.383
same,glycan array binding signal (z-score),Fuc(a1-2)Gal(b1-4)Glc6S,-0.234
same,glycan array binding signal (z-score),Fuc(a1-2)Gal(b1-4)GlcNAc,-0.337
same,glycan array binding signal (z-score),[19],0.117
same,glycan array binding signal (z-score),[20],-0.104
same,glycan array binding signal (z-score),[21],0.844
same,glycan array binding signal (z-score),[22],-0.07
same,glycan array binding signal (z-score),[23],-0.571
same,glycan array binding signal (z-score),[24],0.041
